Measured values as given in the supplement of paper PMC8728848.
Some of the results follow.

Key:
Experiment in all cases: glycan array binding signal (z-score within array); higher = stronger binding
Settings in all cases: glycan notation: IUPAC condensed, linker removed
[1] = biological target: Neu5Ac(a2-3)Gal(b1-3)GlcNAc6S
In short: (§1)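 The binding signal is a Z-score computed within each array. Data were drawn from 3228 arrays in the Consortium for Functional Glycomics database, restricted to those with a known protein sequence. Scores were averaged over arrays of the same protein sequence at different concentrations or buffers, and over linkers, and negative values can be taken as non-binding.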

[2] = biological target: Neu5Ac(a2-3)Gal(b1-3)[Fuc(a1-4)]GlcNAc
In short: as §1

[3] = biological target: Neu5Ac(a2-3)Gal(b1-3)[Fuc(a1-4)]GlcNAc(b1-3)Gal(b1-3)[Fuc(a1-4)]GlcNAc
In short: as §1

[4] = biological target: Neu5Ac(a2-3)Gal(b1-3)[Fuc(a1-4)]GlcNAc(b1-3)Gal(b1-4)[Fuc(a1-3)]GlcNAc
In short: as §1

[5] = biological target: Neu5Ac(a2-3)Gal(b1-3)[GlcNAc(b1-6)]GalNAc
In short: as §1

[6] = biological target: Neu5Ac(a2-3)Gal(b1-3)[Neu5Ac(a2-3)Gal(b1-4)]GlcNAc
In short: as §1

[7] = biological target: Neu5Ac(a2-3)Gal(b1-3)[Neu5Ac(a2-6)]GalNAc
In short: as §1

[8] = biological target: Neu5Ac(a2-3)Gal(b1-3)[Neu5Ac(a2-6)]GlcNAc(b1-3)[Fuc(a1-3)[Gal(b1-4)]GlcNAc(b1-6)]Gal(b1-4)Glc
In short: as §1

[9] = biological target: Neu5Ac(a2-3)Gal(b1-3)]Neu5Ac(a2-3)Gal(b1-4)]GlcNAc
In short: as §1

Neu5Ac(a2-3)Gal(b1-4)Glc = biological target: Neu5Ac(a2-3)Gal(b1-4)Glc
In short: as §1

[10] = biological target: Neu5Ac(a2-3)Gal(b1-4)GlcNAc
In short: as §1

[11] = biological target: Neu5Ac(a2-3)Gal(b1-4)GlcNAc(b1-2)Man
In short: as §1

[12] = biological target: Neu5Ac(a2-3)Gal(b1-4)GlcNAc(b1-2)Man(a1-3)[GlcNAc(b1-4)][Neu5Ac(a2-3)Gal(b1-4)GlcNAc(b1-2)Man(a1-6)]Man(b1-4)GlcNAc(b1-4)GlcNAc
In short: as §1

[13] = biological target: Neu5Ac(a2-3)Gal(b1-4)GlcNAc(b1-2)Man(a1-3)[Neu5Ac(a2-3)Gal(b1-4)GlcNAc(b1-2)Man(a1-6)]Man(b1-4)GlcNAc(b1-4)GlcNAc
In short: as §1

[14] = biological target: Neu5Ac(a2-3)Gal(b1-4)GlcNAc(b1-2)Man(a1-3)[Neu5Ac(a2-3)Gal(b1-4)GlcNAc(b1-2)Man(a1-6)]Man(b1-4)GlcNAc(b1-4)[Fuc(a1-6)]GlcNAc
In short: as §1

[15] = biological target: Neu5Ac(a2-3)Gal(b1-4)GlcNAc(b1-2)Man(a1-3)[Neu5Ac(a2-6)Gal(b1-4)GlcNAc(b1-2)Man(a1-6)]Man(b1-4)GlcNAc(b1-4)GlcNAc
In short: as §1

[16] = biological target: Neu5Ac(a2-3)Gal(b1-4)GlcNAc(b1-2)[Neu5Ac(a2-3)Gal(b1-4)GlcNAc(b1-4)]Man(a1-3)[GlcNAc(b1-4)][Neu5Ac(a2-3)Gal(b1-4)GlcNAc(b1-2)[Neu5Ac(a2-3)Gal(b1-4)GlcNAc(b1-6)]Man(a1-6)]Man(b1-4)GlcNAc(b1-4)GlcNAc
In short: as §1

[17] = biological target: Neu5Ac(a2-3)Gal(b1-4)GlcNAc(b1-2)[Neu5Ac(a2-3)Gal(b1-4)GlcNAc(b1-4)]Man(a1-3)[GlcNAc(b1-4)][Neu5Ac(a2-3)Gal(b1-4)GlcNAc(b1-4)Man(a1-6)]Man(b1-4)GlcNAc(b1-4)GlcNAc
In short: as §1

[18] = biological target: Neu5Ac(a2-3)Gal(b1-4)GlcNAc(b1-2)[Neu5Ac(a2-3)Gal(b1-4)GlcNAc(b1-6)]Man(a1-6)[Neu5Ac(a2-3)Gal(b1-4)GlcNAc(b1-2)Man(a1-3)]Man(b1-4)GlcNAc(b1-4)GlcNAc
In short: as §1

[19] = biological target: Neu5Ac(a2-3)Gal(b1-4)GlcNAc(b1-2)[Neu5Ac(a2-3)Gal(b1-4)GlcNAc(b1-6)]Man(a1-6)[Neu5Ac(a2-3)Gal(b1-4)GlcNAc(b1-2)Man(a1-3)][GlcNAc(b1-4)]Man(b1-4)GlcNAc(b1-4)GlcNAc
In short: as §1

[20] = biological target: Neu5Ac(a2-3)Gal(b1-4)GlcNAc(b1-3)Gal
In short: as §1

[21] = biological target: Neu5Ac(a2-3)Gal(b1-4)GlcNAc(b1-3)Gal(b1-3)GlcNAc
In short: as §1

[22] = biological target: Neu5Ac(a2-3)Gal(b1-4)GlcNAc(b1-3)Gal(b1-4)GlcNAc
In short: as §1

[23] = biological target: Neu5Ac(a2-3)Gal(b1-4)GlcNAc(b1-3)Gal(b1-4)GlcNAc(b1-2)Man(a1-3)[Neu5Ac(a2-3)Gal(b1-4)GlcNAc(b1-3)Gal(b1-4)GlcNAc(b1-2)Man(a1-6)]Man(b1-4)GlcNAc(b1-4)GlcNAc
In short: as §1

[24] = biological target: Neu5Ac(a2-3)Gal(b1-4)GlcNAc(b1-3)Gal(b1-4)GlcNAc(b1-3)Gal(b1-4)GlcNAc
In short: as §1

[25] = biological target: Neu5Ac(a2-3)Gal(b1-4)GlcNAc(b1-3)Gal(b1-4)GlcNAc(b1-3)Gal(b1-4)GlcNAc(b1-2)Man(a1-3)[Neu5Ac(a2-3)Gal(b1-4)GlcNAc(b1-3)Gal(b1-4)GlcNAc(b1-3)Gal(b1-4)GlcNAc(b1-2)Man(a1-6)]GalNAc
In short: as §1

[26] = biological target: Neu5Ac(a2-3)Gal(b1-4)GlcNAc(b1-3)Gal(b1-4)GlcNAc(b1-3)GalNAc
In short: as §1

[27] = biological target: Neu5Ac(a2-3)Gal(b1-4)GlcNAc(b1-3)Gal(b1-4)GlcNAc(b1-3)[Neu5Ac(a2-3)Gal(b1-4)GlcNAc(b1-3)Gal(b1-4)GlcNAc(b1-6)]GalNAc
In short: as §1

[28] = biological target: Neu5Ac(a2-3)Gal(b1-4)GlcNAc(b1-3)Gal(b1-4)GlcNAc(b1-6)[Gal(b1-3)]GalNAc
In short: as §1

[29] = biological target: Neu5Ac(a2-3)Gal(b1-4)GlcNAc(b1-3)Gal(b1-4)[Fuc(a1-3)]GlcNAc
In short: as §1

[30] = biological target: Neu5Ac(a2-3)Gal(b1-4)GlcNAc(b1-3)GalNAc
In short: as §1

B1: MGL1 (Mus musculus), P49300 (protein)
chain: MIYENLQNSRIEEKTQEPGKAPSQSFLWRILSWTHLLLFSLGLSLLLLVVVSVIGSQNSQLRRDLGTLRATLDNTTSKIKAEFQSLDSRADSFEKGISSLKVDVEDHRQELQAGRDLSQKVTSLESTVEKREQALKTDLSDLTDHVQQLRKDLKALTCQLANLKNNGSEVACCPLHWTEHEGSCYWFSESEKSWPEADKYCRLENSHLVVVNSLEEQNFLQNRLANVVSWIGLTDQNGPWRWVDGTDFEKGFKNWAPLQPDNWFGHGLGGGEDCAHITTGGPWNDDVCQRTFRWICEMKLAKES
[1]
  glycan array binding signal (z-score): 0.295
[2]
  glycan array binding signal (z-score): -0.599
[3]
  glycan array binding signal (z-score): -0.165
[4]
  glycan array binding signal (z-score): -0.363
[5]
  glycan array binding signal (z-score): -0.879
[6]
  glycan array binding signal (z-score): -0.164
[7]
  glycan array binding signal (z-score): -0.424
[8]
  glycan array binding signal (z-score): 0.121
[9]
  glycan array binding signal (z-score): -1.24
Neu5Ac(a2-3)Gal(b1-4)Glc
  glycan array binding signal (z-score): -0.248
[10]
  glycan array binding signal (z-score): -0.002
[11]
  glycan array binding signal (z-score): -0.184
[12]
  glycan array binding signal (z-score): -0.275
[13]
  glycan array binding signal (z-score): 0.46
[14]
  glycan array binding signal (z-score): -0.829
[15]
  glycan array binding signal (z-score): -0.771
[16]
  glycan array binding signal (z-score): -0.651
[17]
  glycan array binding signal (z-score): -0.357
[18]
  glycan array binding signal (z-score): -0.519
[19]
  glycan array binding signal (z-score): -0.328
[20]
  glycan array binding signal (z-score): -0.358
[21]
  glycan array binding signal (z-score): -0.706
[22]
  glycan array binding signal (z-score): -0.147
[23]
  glycan array binding signal (z-score): 1.98
[24]
  glycan array binding signal (z-score): -0.335
[25]
  glycan array binding signal (z-score): 3.39
[26]
  glycan array binding signal (z-score): -0.308
[27]
  glycan array binding signal (z-score): -0.025
[28]
  glycan array binding signal (z-score): 0.066
[29]
  glycan array binding signal (z-score): -0.417
[30]
  glycan array binding signal (z-score): -0.537
